Structures are written as SMILES. The list shows a part of the results. Repeats are few or missing, and single values can be far off.
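Also: cells treated in 1,536-well plates, then fixed and DAPI-stained, with nuclei counted from automated high-throughput microscope images.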

In the assay the test system is MEL-HO. The assay is described as follows: cell count relative to DMSO control; melanoma cells; higher = more viable cells. As to conditions: library dose: standard library concentration; 72 h.
`Nc1ncn([C@H]2C[C@H](O)[C@@H](CO)O2)c(=O)n1` [decitabine] + C#Cc1cccc(Nc2ncnc3cc(OCCOC)c(OCCOC)cc23)c1 [erlotinib] (first compound 0.5 µM, partner dose 4 µM): the cell count came to 70.1%.

Take `CC(=O)O[C@@]12CO[C@@H]1C[C@H](O)[C@@]1(C)C(=O)[C@H](O)C3=C(C)[C@@H](OC(=O)[C@H](O)[C@@H](NC(=O)OC(C)(C)C)c4ccccc4)C[C@@](O)([C@@H](OC(=O)c4ccccc4)[C@H]21)C3(C)C` [Docetaxel] + OCc1c[nH]c2ccccc12 [Indole-3-carbinol] (first compound 0.0005 µM, partner dose 4 µM): the cell count was 49.8%. In the case of `CO[C@H]1C[C@@H]2CC[C@@H](C)[C@@](O)(O2)C(=O)C(=O)N2CCCC[C@H]2C(=O)O[C@H]([C@H](C)C[C@@H]2CC[C@@H](OCCO)[C@H](OC)C2)CC(=O)[C@H](C)/C=C(\C)[C@@H](O)[C@@H](OC)C(=O)[C@H](C)C[C@H](C)/C=C/C=C/C=C/1C` [everolimus] + COc1cc(Nc2ncc(F)c(Nc3ccc4c(n3)NC(=O)C(C)(C)O4)n2)cc(OC)c1OC [Tamatinib] (first compound 0.1 µM, partner dose 2 µM) it was 73.2%; in that of `Nc1ncn([C@H]2C[C@H](O)[C@@H](CO)O2)c(=O)n1` [decitabine] + CN(C)S(=O)(=O)c1ccc2c(c1)/C(=C/c1cc3c([nH]1)CCCC3)C(=O)N2 [SU6656] (first compound 0.5 µM, partner dose 2 µM), 71.3%.

(Values after the supplement of paper PMC4604168 (melanoma cell lines).)
